Test results as given in PubChem BioAssay AID2100 (National Center for Advancing Translational Sciences (NCATS), 2009).
The campaign covered roughly 300,000 compounds. About 1,200 (0.4%) were called active. The inconclusive results got no clear call from the source; some entries with a clear call stand among them for comparison. Calls come from the whole dose curve; as a rule, active = well fitted inhibition curve with a large enough effect; inconclusive = small, poorly fitted or top-dose-only effect, or another doubt; inactive = no such curve, though single readings can be large or run the other way. A potency beside an inconclusive call is a rough fit, not a confirmed value.
Potency is the fitted concentration of half-maximal effect.
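Throughout, for activity change, negative = inhibition: 0% = full enzyme reaction and -100% = no-enzyme basal signal.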

Each molecule was assayed against Lysosomal alpha-glucosidase (Homo sapiens) (UniProt P10253) (assay: qHTS Assay for Inhibitors and Activators of Human alpha-Glucosidase Cleavage of Glycogen). Conditions: recombinant GAA, glycogen substrate, Amplex Red glucose oxidase fluorescence; activity change, negative = inhibition: at 76.4 µM (top of the series) unless noted.
In short: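 Recombinant human alpha-glucosidase (4 nM final) hydrolysed bovine liver glycogen (30 ug) for 40 min at 37 C in pH 5.0 citrate/phosphate with 0.01% Tween-20. Released glucose detected by glucose oxidase/Amplex Red, Ex 573/Em 610 nm. Compounds up to 77 uM; AC50 from Hill fits.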
For CCOC(=O)C(=NCCCN(C)C)NNc1cc(C(F)(F)F)ccc1Cl, the Potency was inconclusive: 12.6 µM [inhibitor, full curve, poor fit]. In the case of CCOc1ccc(N)cc1OC, the Potency is reported as inconclusive: 10 µM [inhibitor, full curve]. COc1ccc(NS(=O)(=O)c2cc(NC(=O)C3CCCO3)ccc2N2CCCC2)cc1 (stereo not given) was tested, and the Potency was inconclusive: 7.94 µM [inhibitor, full curve]. In the case of COC(=O)c1sccc1N/N=C/c1ccc(OC)c(OC)c1OC, the Potency is reported as inconclusive: 24.9 µM [inhibitor, partial curve]. In the case of CN(c1c[nH]c(=O)[nH]c1=O)C1CCCCC1, the Potency is reported as inconclusive: 44.3 µM [inhibitor, partial curve]. Cc1ccc(S(=O)(=O)N2CCCCC2)cc1NC(=O)CN1C(=O)CN(C)C1=O was tested, and the Potency was inconclusive: 11.2 µM [inhibitor, single point]. COc1ccc(C2=NN(C(C#N)c3ccc(OC)c(OC)c3)C(c3ccccc3)C2)cc1 (stereo not given) was tested, and the Potency was inconclusive: 39.8 µM [activator, single point]. O=C(NCc1ccccn1)C(=O)NN=C1CCCCCCCCCCC1 was tested, and the Potency was inconclusive: 7.88 µM [inhibitor, full curve]. With C/C(=N\N1CCN(Cc2ccccc2)CC1)c1ccco1 the Potency was inconclusive: 12.5 µM [inhibitor, partial curve]. For CN(C)/C=C1\NC(=S)N(c2ccccc2)C1=O, the Potency was inconclusive: 25.1 µM [inhibitor, partial curve]. CN(CC(=O)Nc1ccc(F)c(F)c1F)c1cnccn1 was tested, and the Potency was inconclusive: 17.8 µM [inhibitor, partial curve]. CCOC(=O)CC(NC(=O)CCc1c(C)nc2c(-c3ccccc3)c(C)nn2c1C)c1ccc(C)cc1 (stereo not given) was tested, and the “activity change, negative = inhibition” value was inactive: -8.27% [at 76.3 µM]. With Cc1onc(-c2c(Cl)cccc2Cl)c1NC(=O)NNc1ccccc1 the Potency was inconclusive: 12.5 µM [inhibitor, partial curve]. C/C(=N/NC(=O)Cc1c(C)[nH][nH]c1=O)c1ccc(O)cc1 was tested, and the Potency was inconclusive: 22.4 µM [inhibitor, single point]. In the case of O=C(N/N=C/c1ccc(O)c(O)c1)c1ccc(CSc2cccc3cccnc23)cc1, the Potency is reported as active: 14.1 µM. In the case of Cc1ccc(NNC(=O)Nc2ccc(Cl)cc2)nn1, the Potency is reported as inconclusive: 20 µM [inhibitor, partial curve]. Cc1ccsc1/C=N\NC(=O)CC(=O)NCc1ccccc1 was tested, and the “activity change, negative = inhibition” value was inactive: 1.75%. CCOc1ccc(Nc2nc(Cc3nnc(SCC(=O)O)o3)cs2)cc1 was tested, and the Potency was active: 14.1 µM. Cc1sc2ncnc(N/N=C/c3cccc(O)c3)c2c1C was tested, and the Potency was inconclusive: 39.8 µM [inhibitor, single point]. For Cc1cc(C)cc(Nc2ccc(C(=O)O)cc2N)c1, the Potency was inconclusive: 12.6 µM [inhibitor, partial curve]. For NNC(=O)c1sc(-c2ccc(Cl)cc2)cc1N, the Potency was inconclusive: 14.1 µM [inhibitor, partial curve]. Cc1cc(C)nc(Nc2ccc(N3CCCC3)cc2)n1 was tested, and the Potency was inconclusive: 6.26 µM [inhibitor, partial curve]. In the case of COc1cc(NC(=O)c2cc(Cl)ccc2Cl)ccc1NC(=O)c1cc2ccccc2o1, the “activity change, negative = inhibition” value is reported as inactive: 13.5% [at 76.3 µM]. c1ccc(C2=Nc3ccccc3NC(c3ccccc3)C2)cc1 (stereo not given) was tested, and the Potency was inconclusive: 17.6 µM [activator, partial curve]. With Cc1cccc2nc(-c3ccc(N(C)C)cc3)c(Nc3ccc4c(c3)OCO4)n12 the Potency was inconclusive: 3.98 µM [inhibitor, full curve]. O=C(O)CC/C(=N/Nc1ncc(C(F)(F)F)cc1Cl)C(=O)O was tested, and the Potency was active: 17.8 µM. In the case of CCSc1ncc(/C=N/Nc2ccc([N+](=O)[O-])cc2)n1C, the Potency is reported as inconclusive: 12.6 µM [inhibitor, full curve, poor fit]. In the case of CCOc1ccc(-n2c(SCC(N)=O)nc3sc4c(c3c2=O)CCN(C)C4)cc1, the Potency is reported as inconclusive: 31.6 µM [activator, partial curve]. For COc1ccc(Cc2nnc(SCC(=O)NC3CCCC3)o2)cc1, the Potency was inconclusive: 10 µM [inhibitor, single point]. COc1cc(Cl)c(C)cc1NC(=O)CN(C)Cc1cccc(OC)c1OC was tested, and the Potency was inconclusive: 7.94 µM [inhibitor, single point]. With CCn1c(SCC(=O)c2ccc(O)c(O)c2)nnc1-c1ccc(C)cc1 the Potency was active: 12.5 µM. NNC(=S)Nc1c(Br)cc(F)cc1Br was tested, and the Potency was inconclusive: 35.2 µM [inhibitor, partial curve]. O=C1CC(Nc2ccc(N3CCOCC3)cc2)C(=O)N1C1CCCCC1 (stereo not given) was tested, and the Potency was active: 12.6 µM. In the case of Cc1cccc(NNC(N)=S)c1, the Potency is reported as inconclusive: 20 µM [inhibitor, partial curve]. With O=C(c1coc(=O)c(Br)c1)N1CCCc2ccccc21 the Potency was inconclusive: 31.6 µM [inhibitor, partial curve]. CN1/C(=C/C2CC(=O)N(c3ccc([N+](=O)[O-])cc3)C2=O)C(C)(C)c2ccccc21 (stereo not given) was tested, and the Potency was inconclusive: 50.1 µM [inhibitor, single point]. With COc1ccccc1OCCn1c(C(C)Oc2ccccc2)nc2ccccc21 (stereo not given) the “activity change, negative = inhibition” value was inactive: -11.7% [at 76.3 µM]. For O=C(O)c1cc(S(=O)(=O)Nc2cccc(Oc3ccccc3)c2)ccc1Br, the “activity change, negative = inhibition” value was inactive: 5.51%. For CCn1c(CSc2nnc3ccccn23)nc2cc(C(=O)O)ccc21, the “activity change, negative = inhibition” value was inactive: -9.42%. With Cc1nn(C)c(C(=O)NNC(=S)Nc2ccc(Cl)cc2)c1[N+](=O)[O-] the Potency was inconclusive: 31.4 µM [inhibitor, single point]. For CC1(C)C/C(=N\NC(=S)Nc2ccccc2F)c2cc(O)ccc2O1, the Potency was inconclusive: 12.6 µM [inhibitor, partial curve]. In the case of Nc1c(-c2nc(-c3ccccc3)cs2)c2ccccn2c1C(=O)c1ccc2c(c1)OCO2, the “activity change, negative = inhibition” value is reported as inactive: -3.24% [at 76.3 µM]. With O/N=C1\CCCCc2ccccc21 the activity change, negative = inhibition was inconclusive: 26.9% [activator]. O=C(NN=C(Cc1ccccc1)Cc1ccccc1)c1ccncc1 was tested, and the Potency was inconclusive: 12.6 µM [inhibitor, partial curve]. With CCCOCC(O)CC(CC)C(=O)NNC(=S)Nc1ccccc1 (stereo not given) the Potency was inconclusive: 20 µM [inhibitor, partial curve].
